Experimental data from PubChem BioAssay AID1671188 (National Center for Advancing Translational Sciences (NCATS), 2021).
In all, about 100,000 compounds went through this assay and about 250 (0.25%) were called active. Inconclusive means that the source gave no clear call. Such entries were picked first, then a sample of the others. Calls come from the whole dose curve; as a rule, active = well fitted inhibition curve with a large enough effect; inconclusive = small, poorly fitted or top-dose-only effect; inactive = flat fitted curve, though single readings scatter. Potencies of inconclusive entries are left out as doubtful fits.

molecular target: Alanine aminotransferase 2 (Homo sapiens) (UniProt Q8TD30); assay: Primary qHTS assay for inhibitors of Glutamate pyruvate transaminase 2 (GPT2); conditions: Recombinant GPT2, coupled pyruvate oxidase/HRP Amplex Red fluorescence; activity change, negative = inhibition: at 57.7 µM (top of the series) unless noted; series mostly up to 57.7 µM; note: nearly all actives have a fitted effect of over 60% in size
Sequence of UniProt Q8TD30 (Q8TD30 whole entry, looked up): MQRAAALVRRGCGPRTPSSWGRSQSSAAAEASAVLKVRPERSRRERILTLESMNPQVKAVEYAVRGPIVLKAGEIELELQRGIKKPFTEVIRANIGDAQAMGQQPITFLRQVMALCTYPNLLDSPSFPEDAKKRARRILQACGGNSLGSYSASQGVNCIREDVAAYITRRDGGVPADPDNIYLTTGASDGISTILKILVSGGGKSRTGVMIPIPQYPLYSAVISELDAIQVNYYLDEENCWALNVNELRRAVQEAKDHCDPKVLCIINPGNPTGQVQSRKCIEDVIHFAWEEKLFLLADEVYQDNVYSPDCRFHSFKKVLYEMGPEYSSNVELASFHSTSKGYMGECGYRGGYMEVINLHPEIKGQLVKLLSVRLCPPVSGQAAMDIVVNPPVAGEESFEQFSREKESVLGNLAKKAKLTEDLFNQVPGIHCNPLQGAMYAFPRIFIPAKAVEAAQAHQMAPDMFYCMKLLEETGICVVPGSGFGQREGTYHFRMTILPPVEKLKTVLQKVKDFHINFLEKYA
Method in brief: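 Fluorescence read-out: pyruvate from GPT2 turnover coupled to pyruvate oxidase, HRP and Amplex Red (0.2mM ThPP, 0.2U/mL PO and HRP, 50uM Amplex final). Substrates 250uM a-KG, 2mM L-alanine; enzyme 10ng/uL; 30 min RT.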
% is set by controls: 0 for no effect and ±100 for the full control effect; potency is the fitted concentration of half-maximal effect; tags give direction and shape of the fitted curve.

Row | SMILES | Potency | activity change, negative = inhibition | outcome
1 | CC(=O)Nc1cccc(-c2cnc3n[nH]c(-c4ccc5c(c4)OCO5)c3n2)c1 | inconclusive [inhibitor, partial curve, poor fit] | – | –
2 | Cc1ccc(-c2ccccc2CN2CCN(C(=O)C(C)(C)C)CC2)cc1Cl | – | inactive: -8.99% | –
3 | C=C1C(=O)O[C@@H]2[C@H]1CC(=O)[C@H](C)[C@@](O)(C(=O)/C=C/C)[C@H]2OC(=O)C(C)CC (some centres not stated) | – | inactive: 4.44% [at 27.3 µM] | –
4 | CCCn1c(C)cnc1CC1CCCN(C(=O)C2CCCC2)C1 (configuration not stated) | – | inactive: 4.42% | –
5 | CNC(=O)N1CCC(C2CCN(C(=O)c3cccc(C#N)c3)C2)CC1 (configuration not stated) | inconclusive [inhibitor, single point] | – | –
6 | C[C@@]12CCC[C@H]1[C@@H]1CC[C@H]3C[C@@H](O)CC[C@]3(C)[C@H]1CC2 | inconclusive [inhibitor, single point] | – | –
7 | COCCOCc1nc(C2CCCN2C(=O)Cc2cccc(F)c2)no1 (configuration not stated) | inconclusive [inhibitor, partial curve, poor fit] | – | –
8 | COc1ccc(C(CC(=O)NCc2ccccc2)c2c[nH]c3ccccc23)cc1OC (configuration not stated) | inconclusive [inhibitor, partial curve] | – | –
9 | COc1cccc(CNC(=O)[C@@]23CCCC[C@H]2N(CCC(C)C)C(=O)CC3)c1OC | inconclusive [inhibitor, single point] | – | –
10 | COC1C(=O)N(CC2CC2)C12CCN(S(=O)(=O)c1ccc3c(c1)OCCO3)CC2 (configuration not stated) | inconclusive [inhibitor, single point] | – | –
11 | Cc1ccc(-c2ncc(C(=O)Nc3ccccc3)c(-c3ccncc3)n2)cc1 | inconclusive [inhibitor, single point] | – | –
12 | O=C(COc1ccc(F)cc1)N1CCC2(CC1)NC(=O)N(c1ccc(F)cc1)N2 | inconclusive [inhibitor, single point] | – | –
13 | O=C(CCc1nc(-c2ccccc2)no1)NC1CCCN(CCCc2ccccc2)C1 (configuration not stated) | – | – | inactive
14 | CN(Cc1cccc(C(F)(F)F)c1)Cc1nc(-c2ccccc2)no1 | inconclusive [inhibitor, single point] | – | –
15 | COc1ccccc1C(=O)N1CCC2(CC1)CC(=O)Nc1ccccc1O2 | inconclusive [inhibitor, single point] | – | –
16 | O=C(c1ccc(Cl)cc1)N1CC2(CCCN2CC2CCCCC2)Cc2ccccc21 (configuration not stated) | inconclusive [inhibitor, full curve, poor fit] | – | –
17 | Cc1ccc2c(C)c(C(=O)N3CC(OCc4ccccc4F)C3)oc2c1 | inconclusive [inhibitor, full curve, poor fit] | – | –
18 | CC(=O)O[C@@H]1c2c3c(cc(O)c2C(=O)O[C@@H]1C)O[C@@]1(C)[C@@H](O)C[C@H]2C(C)(C)C(=O)C=C[C@]2(C)[C@@H]1C3 | inconclusive [inhibitor, partial curve, poor fit] | – | –
19 | CNS(=O)(=O)c1ccc(C2CC(=O)Nc3cc(O)c(OC)cc32)cc1 (configuration not stated) | inconclusive [inhibitor, single point] | – | –
20 | CCCn1c(C)c(CC(=O)NCC2CCCOC2)c2c1CC(C)(C)CC2=O (configuration not stated) | inconclusive [inhibitor, single point] | – | –
21 | NC(=O)[C@H](Cc1cccs1)NC(=O)[C@@H]1[C@@H](NC(=O)Nc2ccc(F)cc2F)CCN1C(=O)c1cnccn1 | inconclusive [inhibitor, single point] | – | –
22 | CCc1cccc(CC)c1-n1c(C=C(C)C)c(C(=O)N2CCNCC2)cc(-c2nc(-c3ccc(C(F)(F)F)cc3)cs2)c1=O | inconclusive [inhibitor, single point] | – | –
23 | COCCn1c(C)cc(C(=O)N2CCC3(CC2)CC(C(=O)N2CCOCC2)N(C)C3)c1C (configuration not stated) | – | inactive: -4% | –

Row | SMILES | Potency | activity change, negative = inhibition | outcome
24 | O=C(O)C1(c2ccccc2)CCN(S(=O)(=O)c2ccccc2)CC1 | – | inactive: -9.19% | –
25 | O=C(C1CCCN1C(=O)c1ccccc1F)N1CCC(N2CCOCC2=O)CC1 (configuration not stated) | – | – | inactive
26 | C=C1c2cccc(O)c2C(O)=C2C(=O)[C@]3(O)C(O)=C(C(N)=O)C(=O)[C@@H](N(C)C)[C@@H]3[C@@H](O)[C@H]12 | – | inactive: 3.34% | –
27 | CN(CC1CCOCC1)C(=O)NC1CCCC1 | inconclusive [inhibitor, single point] | – | –
28 | C[C@@H]1[C@H]2[C@H](O[C@@H]3O[C@H](CO)[C@@H](O)[C@H](O)[C@H]3O)OC=C(C(=O)O)[C@H]2C[C@@H]1O | inconclusive [inhibitor, partial curve, poor fit] | – | –
29 | O=c1n(CC2CC2)nc2n1CCN(C1CCCC1)CC2 | – | inactive: -0.575% | –
30 | O=C(NCC1CC1)[C@@H]1OCCN(C2CC2)[C@H]1c1ccccc1 | – | inactive: -4.7% | –
31 | O=C(Nc1cc(F)cc(F)c1)C1CCN(C(=O)c2ncn3c2COC(c2ccc(F)cc2)C3)CC1 (configuration not stated) | – | – | inactive
32 | CCCN(C)c1nccnc1OC1CCN(C(=O)c2ccn[nH]2)C1 (configuration not stated) | inconclusive [inhibitor, single point] | – | –
33 | N#C/C(=C\c1ccc(O)c(O)c1)C(=O)NCCCc1ccccc1 | inconclusive [inhibitor, single point] | – | –
34 | Cc1ccc(OCCC2CCN(C(=O)Cc3c[nH]c4ccccc34)C2)cc1 (configuration not stated) | – | inactive: -3.38% | –
35 | O=C(c1ccccc1F)N1CCC(N2CCCC2=O)CC1 | – | inactive: -2.24% | –
36 | COc1ccc(C(=O)N2CCCN(S(C)(=O)=O)c3ccccc32)c(C)c1 | – | inactive: 3.12% | –
37 | O=C(Nc1ccnn1C1CCN(C(=O)Cn2cccn2)CC1)C1CCCC1 | inconclusive [inhibitor, single point] | – | –
38 | COc1ccccc1-n1c(=O)c(C(=O)N2CCN(C(=O)c3ccccc3)CC2)nc2cccnc21 | – | – | inactive
39 | OCc1ccc(CN2C[C@H](O)C[C@H]2c2nc(-c3ccc(F)cc3)no2)o1 | – | – | inactive [at 88.5 µM]
40 | Cc1ccc(C(=O)NCc2cccnc2Oc2ccccc2F)c(=O)n1C | – | inactive: -2.54% | –
41 | Cc1ccc(C(=O)N2CCCCCCNC(=O)[C@@H]3CCCC[C@@H]32)c(=O)[nH]1 | – | inactive: -10.8% | –
42 | CC(C)(C)C1CCC2(CC1)NC(=O)N(CC(=O)N1CCN(c3ccccc3)CC1)C2=O (configuration not stated) | – | inactive: 0.984% | –
43 | CCNC(=O)N[C@H]1C[C@@H](Cc2cc(CN3CCN(c4ccccc4)CC3)on2)C1(C)C | – | – | inactive [at 88.5 µM]
44 | Cc1ccc(C(=O)N2CCCCCCNC(=O)[C@@H]3C[C@@H](C(=O)N4CCc5ccccc5C4)C[C@@H]32)s1 | – | inactive: 3.81% | –
45 | O=c1oc2cc(O)ccc2s1 | inconclusive [inhibitor, single point] | – | –
46 | O=C(Cc1ccc(Cl)cc1)NC1CCN(c2cc(-c3cccs3)[nH]n2)C1 (configuration not stated) | inconclusive [inhibitor, partial curve] | – | –

Row | SMILES | Potency | activity change, negative = inhibition | outcome
47 | COc1ccc(CC(=O)N2CCN(C(=O)c3cccc(-c4ccccc4OC)c3)CC2)cc1 | – | – | inactive
48 | CCCCNC(=O)N1CCc2c(c3cc(F)ccc3n2C)C1 | inconclusive [inhibitor, partial curve, poor fit] | – | –
49 | Cn1cc2c3c(cccc31)CN(C(=O)CC(C)(C)C)CC2 | – | – | inactive
50 | COc1ccc(C(=O)N2CCC3(C2)C(=NC2CCCC2)NC(=O)N3c2cccc(OC)c2)cc1 (configuration not stated) | – | – | inactive
51 | CCN1c2cc(C(=O)Nc3cccc(SC)c3)ccc2C(=O)N2CCCCCC21 (configuration not stated) | – | – | inactive
52 | CC(C)c1nnc2ccc(N3CCN(C(C)C)CC3)nn12 | inconclusive [inhibitor, partial curve, poor fit] | – | –
53 | COCCNC(=O)[C@H]1C[C@H](Oc2ccccc2)CN1Cc1ccc(OC(F)(F)F)cc1 | – | – | inactive
54 | CC(C)C(CO)Nc1nc(Nc2ccc(C(=O)O)c(Cl)c2)c2ncn(C(C)C)c2n1 (configuration not stated) | inconclusive [inhibitor, single point] | – | –
55 | CCO[C@H]1CN(C(=O)c2ccc(NS(=O)(=O)CC)cc2)C[C@@H]1O | – | inactive: -0.985% [at 11.5 µM] | –
56 | COc1ccccc1NC(=O)Cn1c(C)ccc(NC(=O)Nc2ccc(C)cc2)c1=O | – | – | inactive
57 | COCCN1C(=O)CO[C@H]2CN(c3ncccn3)C[C@H]21 | inconclusive [inhibitor, partial curve, poor fit] | – | –
58 | COCCn1ccc2c(C3=CCOCC3)nc(-c3cccc(C(N)=O)c3)cc21 | inconclusive [inhibitor, single point] | – | –
59 | O=C(O)c1ccc(O)c2ncc(N3CCOCC3)cc12 | inconclusive [inhibitor, full curve, poor fit] | – | –
60 | COc1ccc(CN2Cc3cc(NC(=O)c4ccc(F)cc4F)ccc3OC(C)C2=O)c(OC)c1 (configuration not stated) | inconclusive [inhibitor, single point] | – | –
61 | Cc1noc2c(-c3cccc(CO)c3)cc(-c3ccc(F)cc3)nc12 | inconclusive [inhibitor, full curve, poor fit] | – | –
62 | CC(O)CCC1C(CO[C@@H]2O[C@H](CO)[C@@H](O)[C@H](O)[C@H]2O)CC(O)CC1(C)C (some centres not stated) | inconclusive [inhibitor, single point] | – | –
63 | Cc1ccccc1C(=O)N1CCCC(C(=O)N2CCCC(c3nc4ncccc4[nH]3)C2)C1 (configuration not stated) | inconclusive [inhibitor, single point] | – | –
64 | CC(c1ccon1)N(C)C(=O)c1cc(CN2CCC(Cc3ccccc3)CC2)on1 (configuration not stated) | inconclusive [inhibitor, single point] | – | –
65 | COc1ccc(Cn2c3c(c(=O)n2Cc2ccccc2)CCN(C(=O)CCc2cccnc2)C3)cc1 | – | inactive: -18.3% | –
66 | CC(C)(C)OCC1CN(Cc2ccccc2)[S+](=O)([O-])c2cnccc2O1 (configuration not stated) | inconclusive [inhibitor, single point] | – | –
67 | COc1ccc(-c2nc(C(C)C)nc3c2CCN(C(=O)c2ccccc2F)CC3)cc1 | – | – | inactive
